# From the supplement of paper PMC12645437, “Orthogonal IMiD-Degron Pairs Induce Selective Protein Degradation in Cells” (ACS Chemical Biology, 2025)
# The list shows a part of the results.
# B1: Q9UKT9 (peptide)
# chain: FQCNVCGAKFTQKGNLLRHIKL
# B2: Q9UKT9 (peptide)
# chain: FVCNQCGAEFTQKGNLLRHIKL
# B3: Q9UKT9 (peptide)
# chain: FTCEICGHGFTQKGNLLRHIKL
# B4: Q9UKT9 (peptide)
# chain: FTCEQCGASFTQKGNLLRHIKL
# B5: Q9UKT9 (peptide)
# chain: FRCDQCGAEFTQKGNLLRHIKL
# B6: Q9UKT9 (peptide)
# chain: FACPICGRCFTQKGNLLRHIKL
# B7: Q9UKT9 (peptide)
# chain: FFCDVCGAGFTQKGNLLRHIKL
# B8: Q9UKT9 (peptide)
# chain: FMCPICGAAFTQKGNLLRHIKL
# B9: Q9UKT9 (peptide)
# chain: LMCEICGFMCTQKGNLLRHIKL
# B10: Q9UKT9 (peptide)
# chain: FWCDQCGAKFTQKGNLLRHIKL
# B11: Q9UKT9 (peptide)
# chain: FTCPQCGAEFTQKGNLLRHIKL
# B12: Q9UKT9 (peptide)
# chain: FLCEICGAYFTQKGNLLRHIKL
# B13: Q9UKT9 (peptide)
# chain: FLCPQCGAEFTQKGNLLRHIKL
# B14: Q9UKT9 (peptide)
# chain: FFCDVCGATFTQKGNLLRHIKL
# B15: Q9UKT9 (peptide)
# chain: FYCEICGRTFTQKGNLLRHIKL
# B16: Q9UKT9 (peptide)
# chain: FYCNQCGRCFTQKGNLLRHIKL
# B17: Q9UKT9 (peptide)
# chain: FICNQCGASFTQKGNLLRHIKL
# B18: Q9UKT9 (peptide)
# chain: FCCNICGAVFTQKGNLLRHIKL
# B19: Q9UKT9 (peptide)
# chain: FQCPICGRSFTQKGNLLRHIKL
# B20: Q9UKT9 (peptide)
# chain: FECDQCGAGFTQKGNLLRHIKL
# B21: Q9UKT9 (peptide)
# chain: FCCEICGAGFTQKGNLLRHIKL
# B22: Q9UKT9 (peptide)
# chain: FKCEICGHTFTQKGNLLRHIKL
# B23: Q9UKT9 (peptide)
# chain: FICPVCGAAFTQKGNLLRHIKL
# B24: Q9UKT9 (peptide)
# chain: FDCNQCGAFFTQKGNLLRHIKL
# B25: Q9UKT9 (peptide)
# chain: FYCPQCGALFTQKGNLLRHIKL
# B26: Q9UKT9 (peptide)
# chain: FSCPICGHVFTQKGNLLRHIKL
# B27: Q9UKT9 (peptide)
# chain: FMCNQCGHEFTQKGNLLRHIKL
# B28: Q9UKT9 (peptide)
# chain: FKCSVCGHRFTQKGNLLRHIKL
# B29: Q9UKT9 (peptide)
# chain: FGCNVCGAGFTQKGNLLRHIKL
# B30: Q9UKT9 (peptide)
# chain: FLCNICGAAFTQKGNLLRHIKL
# B31: Q9UKT9 (peptide)
# chain: FYCEICGHEFTQKGNLLRHIKL
# B32: Q9UKT9 (peptide)
# chain: FYCPICGRHFTQKGNLLRHIKL
# Target: no compound (DMSO)
# Experiment: log2 fold change of degron read counts, EGFP-low vs EGFP+ sorted cells; higher = lower degron-EGFP level without compound (poor expression or instability)
# Conditions: compound: DMSO control; 18 h
# 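Note: jurkat cells carrying a lentiviral library of mutant zinc finger degrons fused to EGFP plus mCherry, mCherry+ cells FACS sorted, degron abundance counted by next-generation sequencing.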
row,Sequence,log2 fold change of degron read counts
1,B1,-1.93
2,B2,-2.69
3,B3,-2.44
4,B4,-1.83
5,B5,-1.7
6,B6,0.184
7,B7,-0.241
8,B8,-0.115
9,B9,-0.104
10,B10,-1.17
11,B11,-2.27
12,B12,-0.21
13,B13,-2.31
14,B14,-2.46
15,B15,-1.35
16,B16,0.223

row,Sequence,log2 fold change of degron read counts
1,B17,-1.29
2,B18,0.432
3,B19,0.0142
4,B20,-0.519
5,B21,-1.28
6,B22,-2.71
7,B23,-0.0924
8,B24,1.07
9,B25,0.78
10,B26,-0.0614
11,B27,-0.965
12,B28,-0.198
13,B29,0.198
14,B30,-0.587
15,B31,-1.15
16,B32,-3.34
